The values that follow come from PubChem BioAssay AID1346428 (National Center for Advancing Translational Sciences (NCATS), 2018).

“And” between values parts separate entries of the source, which are not always exact repeats. Identical values can stand only once. Hit rate of the full screen: of about 48,000 compounds, about 1,200 (2.5%) were called active. Inconclusive results (about 2%) are left out.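 The calls were made as follows: active = activation of at least 60% and not above a set upper limit (about 1 call in 100 departs from these limits); inconclusive = activation of 40% to 60%, or above that upper limit; inactive = activation under 40%.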 Some of the results follow. The source holds several records for some structures; these can differ, active in one and inactive in another.

Chain of UniProt O75388 (O75388 whole entry, looked up): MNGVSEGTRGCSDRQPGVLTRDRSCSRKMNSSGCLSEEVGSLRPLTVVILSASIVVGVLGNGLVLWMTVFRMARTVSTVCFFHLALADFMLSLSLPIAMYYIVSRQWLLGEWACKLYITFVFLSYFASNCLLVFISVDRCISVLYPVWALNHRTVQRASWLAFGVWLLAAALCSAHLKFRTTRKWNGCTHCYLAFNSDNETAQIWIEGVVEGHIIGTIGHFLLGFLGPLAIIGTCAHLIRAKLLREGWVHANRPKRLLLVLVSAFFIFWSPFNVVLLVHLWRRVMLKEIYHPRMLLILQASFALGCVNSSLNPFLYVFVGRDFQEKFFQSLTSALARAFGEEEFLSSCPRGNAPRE

This test concerns the target Probable G-protein coupled receptor 32 (Homo sapiens) (UniProt O75388). As to the kind of experiment: qHTS for Agonists of Human Resolvin D1 Receptor DRV1. Also: 0% is about no effect. As to conditions: CHO-K1 GPR32 beta-arrestin PathHunter luminescence, 90 min; at 76.9 µM; stronger effect = higher value; zero percent set by DMSO-only wells. Summed up:
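CHO-K1 cells stably expressing ProLink-tagged GPR32 and Enzyme Activator-tagged beta-arrestin were seeded at 2,500 cells/well overnight, exposed to compounds for 90 min at 37 °C, then read by beta-Gal complementation chemiluminescence after 1 h detection reagent.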
On the technique in general: In qHTS, concentration-response curves come from the screen itself.
Consider `Clc1ccc(-c2nc3ccccn3c2Nc2ccc3c(c2)OCCO3)s1`, for which the activation was inactive: -17.8%.

Take `Cc1ccc(N(CC(=O)N2CCN(c3cc(Cl)ccc3C)CC2)S(=O)(=O)c2c(C)noc2C)cc1`: the activation was inactive: -14.6%. With `COc1ccc(OC)c(NC(=O)c2sc3nc4c(cc3c2N)CCCCCC4)c1`, the activation was inactive: -26.8%.

As for `Cc1noc2ncnc(NCc3ccccc3Cl)c12`, the activation was inactive: 24%. Take `CCOc1ccc(NC(=O)C(=O)NCCc2csc(-c3ccc(C)cc3)n2)cc1`: the activation was inactive: -9.58%. Consider `COc1ccc(NC(=O)c2sc3nc(C)c(C(=O)Nc4ccc(C)cc4C)c(-c4cccs4)c3c2N)cc1`, for which the activation is inactive: -17.7%. Regarding `CCN(Cc1ccccc1)C(=O)Cn1c(=O)oc2cc(S(=O)(=O)N3CCCCCC3)ccc21`, the activation was inactive: -22.5%.

With `Cc1ccccc1CSc1cn(CC(=O)N2CCCC2)c2ccccc12`, the activation is inactive: -29.7%.

Turning to `Cc1ccc(C)c(N2CCN(C(c3ccc(F)cc3)c3nnc(-c4ccccc4)o3)CC2)c1` (centres undefined), the activation is inactive: -39.6%. With `CCC(=O)N1CCc2cc(S(=O)(=O)NCCC(=O)Nc3ccc(OC)c(OC)c3)ccc21`, the activation was inactive: 5.66%. Regarding `Cc1cnc2c(c1SCC(=O)NCc1ccc(F)cc1)c(=O)n(C)c(=O)n2C`, the activation was inactive: -5.77%.

Turning to `COc1cc(-c2nnn(CC(=O)NCc3ccccc3)n2)cc(OC)c1OC`, the activation was inactive: 2.09%. For the compound `COc1ccc(NC(=O)CSc2nnc3c(C)cc4ccccc4n23)cc1`, the activation is inactive: -7.27%. The figure for `Cc1cccc(N2CCN(c3ncnc4c3c(-c3ccccc3)cn4-c3ccccc3)CC2C)c1` (centres undefined) is inactive: -27.1%.

Consider `CCOc1ccc(-c2cc(C(=O)N3CCN(c4ccc(C)cc4)C(C)C3)c3ccccc3n2)cc1` (centres undefined), for which the activation was inactive: -22.7%.

Regarding `CC1Cc2ccccc2N1C(=O)CSc1nnc(-c2cccc(Cl)c2)o1` (centres undefined), the activation is inactive: 14.7%.

As for `CCOC(=O)c1cc(NC(=O)c2ccc(OC)cc2)c(=O)n2c1oc1ccc(Cl)cc12`, the activation was inactive: 16.9%.

Take `CCn1c(CNC(=O)C23CC4CC(CC(C4)C2)C3)nnc1SCC(=O)Nc1ccc(F)cc1`: the activation was inactive: 25.9%. In the case of `CCOc1ccc(CCNC(=O)c2cc3c(=O)n(C)c4ccccc4c3n2C)cc1`, the activation is inactive: -40.2%. The figure for `O=C(CCc1ccccc1)NCc1ccc2c(c1)CCN2C(=O)c1ccc(Cl)cc1` is inactive: -14.3%; for `O=c1[nH]c2ccc(NCc3ccccc3F)cc2[nH]1` it is inactive: -1.75%; for `Cc1ccc(NC(=O)CC2Sc3ccccc3NC2=O)c(Br)c1` (centres undefined) it is inactive: 11%. On to `CCc1cccc(NC(=O)CC2Oc3ccc(C)cc3NC2=O)c1` (centres undefined), for which the activation was inactive: -4.52%. The figure for `O=C(NCCS(=O)(=O)N1CCN(c2cccc(Cl)c2)CC1)c1cc(=O)c2ccccc2o1` is inactive: -9.21%. `C=C(C)Cn1c(SCC(=O)Nc2cccc(Cl)c2)nc2sc3c(c2c1=O)CCCC3`: the activation was inactive: -1.25%. Take `O=C(NCCC1=CCCCC1)c1ccc2c(c1)N(Cc1ccc(Cl)cc1)C(=O)c1ccccc1S2=O` (centres undefined): the activation was inactive: -7.67%. For the compound `CC1=C(c2ccc(C)c(C)c2)S(=O)(=O)N=C1N1CCC(C(=O)NCc2ccc(Cl)cc2)CC1`, the activation was inactive: -12.5%. For `CCOc1ccc(NC(=O)Cn2cc(C(=O)c3ccc(CC)cc3)c(=O)c3ccc(C)nc32)cc1`, the activation was inactive: 14.2%. In the case of `CCOC(=O)c1cccc(NC(=O)c2cnc(N3CCCCC3)c3ccccc23)c1`, the activation is inactive: -15%. Take `COc1ccc(-n2c(=O)c3c(c4cc(OC)ccc4n3C)n(C)c2=O)cc1`: the activation was inactive: 2.11%. The figure for `Cc1ccc(CNC(=O)CN2CCCN(Cc3ccc(F)cc3)S2(=O)=O)cc1` is inactive: 41.7%; for `Cc1ccc(-n2c(=O)c3cccnc3n2CC(=O)NCc2ccc(F)cc2)cc1C` it is inactive: -9.52%. As to `Cc1cc(C)c(/C=C/c2onc(C)c2S(=O)(=O)N2CCC(C(=O)Nc3ccc(Cl)c(C(F)(F)F)c3)CC2)c(C)c1`, the activation is inactive: -6.84%. With `O=C(COc1ccccc1F)Nc1ccc(Cl)c(-c2nc3ccccc3[nH]2)c1`, the activation was inactive: 20.1%.

For the compound `COc1ccc(NC(=O)CSc2nccn2Cc2ccco2)cc1OC`, the activation is inactive: 0.245%. The figure for `CCN(CC)S(=O)(=O)c1ccc2c(c1)N(CC(=O)Nc1c(C)cc(C)cc1C)C(=O)C1CCCN21` (centres undefined) is inactive: -23.1%. For the compound `CCCCOc1ccc(C(=O)Nc2onc3c2CCCC3)cc1`, the activation is inactive: 45.7%. With `COC(=O)C1CCN(C(c2ccccc2Cl)c2sc3nc(-c4ccco4)nn3c2O)CC1` (centres undefined), the activation was inactive: 20.9%. Consider `Cc1ccc(NC(=O)C2CCCN(S(=O)(=O)c3ccc(F)cc3)C2)cc1` (centres undefined), for which the activation was inactive: 6.23%. For `CCOC(=O)CN1C(C(=O)c2ccccc2)=C(OC(=O)c2ccccc2)c2ccccc2S1(=O)=O`, the activation was inactive: -3.48%. Take `Cc1cc(C)cc(NC(=O)Nc2cccs2)c1`: the activation is inactive: -9.1%. With `CCOC(=O)c1cccc(NC(=O)c2ccc3snnc3c2)c1`, the activation is inactive: -1.95%. Consider `Cc1ccc(C)c(NC(=O)Cn2cnc3nc4c(cc3c2=O)CCCC4)c1`, for which the activation was inactive: -3.81%.

On to `COc1ccccc1N1CCN(C(=O)C2CCCN(S(=O)(=O)c3ccc4c(c3)oc(=O)n4C)C2)CC1` (centres undefined), for which the activation is inactive: 22.1%. Turning to `COC(=O)c1sccc1S(=O)(=O)N(CC(=O)NCc1ccccc1)c1ccc(C)cc1`, the activation is inactive: -25.7%. On to `Cc1ccc(Nc2nc(N)nc(N)c2S(=O)(=O)c2ccccc2)cc1`, for which the activation was inactive: 26.7%. Then `COCCNC(=O)CSc1nnc(NC(=O)Nc2ccc(C)cc2)s1`, with inactive: -7.29%; and `CCc1ccc(-n2c(N3CCN(c4cccc(C)c4C)CC3)nc3ccccc3c2=O)cc1`, with inactive: -25.3%.

In the case of `Cc1nc2ccn(Cc3cccnc3)c(=O)c2cc1C(=O)N1CCN(c2ccccc2)CC1`, the activation is inactive: -6.51%.

`COc1ccccc1C(=O)Nc1nc(-c2ccc(Br)cc2)ns1`: the activation was inactive: -7.17%. The figure for `CCCCn1nc(NC(=O)c2cccc(Cl)c2)c2cc3ccc(C)cc3nc21` is inactive: 7.54%; for `CC(=O)Nc1ccc(NS(=O)(=O)c2cc3c4c(c2)CC(=O)N4CCC3)cc1` it is inactive: -2.38%.

For `COc1cccc(CNC(=O)CCCn2c(=O)c3cccn3c3cccnc32)c1OC`, the activation was inactive: -22%. For `CC(C)(C)c1ccc(OCC(=O)NC(Cc2c[nH]c3ccccc23)C(=O)O)cc1` (centres undefined), the activation was inactive: -13.5%.

Take `COc1ccc(-c2cc3nc(C)c(CCC(=O)N4CCN(c5cc(C)ccc5C)CC4)c(C)n3n2)c(OC)c1`: the activation was inactive: -11.9%. `Cn1cc(S(=O)(=O)c2ccc(Cl)cc2)c(=O)c2cc(F)c(N3CCOCC3)cc21`: the activation is inactive: 1.43%. Regarding `CN[C@H]1CC[C@@H](c2ccc(Cl)c(Cl)c2)c2ccccc21`, the activation is active: 80.8% and inactive: 6.38%.

As for `COc1cc(C(=O)NCCS(=O)(=O)N2CCN(c3ccccc3)CC2)cc(OC)c1OC`, the activation is inactive: -21.4%. As to `CCOc1ccc(NC(=O)CN2CCN(CC(=O)Nc3ccc(OC)cc3)CC2)cc1`, the activation was inactive: -12%.

On to `Cc1ccc(Nc2c(-c3ccccc3O)nc3cc(C)ccn23)cc1`, for which the activation is inactive: -13.2%. For the compound `CN(C(=O)CSc1nc2ccc(NC(=O)COc3ccccc3Cl)cc2s1)c1ccccc1`, the activation is inactive: 18.4%. With `COc1ccccc1/C=C/c1nc(C#N)c(N2CCN(c3ccccc3)CC2)o1`, the activation was inactive: -20.7%. For the compound `COc1ccc(N2CCN(S(=O)(=O)CCNC(=O)c3ccc(OC(C)C)cc3)CC2)cc1`, the activation was inactive: -7.46%. Take `COc1ccc(-c2cc(C(F)(F)F)nc(NCCc3ccccc3)n2)cc1`: the activation is inactive: 10.7%. Turning to `O=C(NCCc1ccccc1)c1cc2sccc2n1Cc1ccc(F)cc1`, the activation was inactive: -3.31%. With `Cc1c(-c2ccc(Cl)cc2)c(=O)oc2c(CN3CCOCC3)c(O)ccc12`, the activation was inactive: -1.33%. For `COC(=O)c1cccc(CN2C(=O)SC(Nc3ccc(Br)cc3)C2=O)c1` (centres undefined), the activation is inactive: -83.7%. Turning to `CSc1cccc(NC(=O)C(c2ccccc2)N2Cc3ccccc3C2=O)c1` (centres undefined), the activation was inactive: -24.5%.

On to `Cc1ccc(NC(=O)CSc2nc3ccc(NC(=O)c4ccco4)cc3s2)c(C)c1`, for which the activation is inactive: 15.7%. As to `CNC(=O)c1c(NC(=O)c2ccc(S(=O)(=O)N3CCCC(C)C3)cc2)sc2c1CCC2` (centres undefined), the activation is inactive: -8.05%. Turning to `CC(CNC(=O)c1ccc2c(c1)nc1n2CCOC1)c1ccccc1` (centres undefined), the activation is inactive: -7.95%.

Take `CC(C)NC(=O)CSc1nc2ccccc2c(=O)n1Cc1ccc(C(=O)NC(C)C)cc1`: the activation is inactive: -17.4%.

Turning to `O=C(CCS(=O)(=O)c1cccc2nonc12)Nc1cccc(F)c1`, the activation was inactive: -6.2%. For `Cc1cccc(C)c1OCCn1c(C2CC(=O)N(Cc3ccc(F)cc3)C2)nc2ccccc21` (centres undefined), the activation was inactive: 11%.

As for `O=C(CSc1nc(=O)[nH]c2c1CCC2)NCc1ccc(Cl)cc1`, the activation is inactive: 0.504%. For the compound `Cc1noc2ncnc(N3CCN(c4ccccc4F)CC3)c12`, the activation was inactive: 20.6%.

Consider `CCSc1ncc(Cl)c(C(=O)Nc2ccc(S(=O)(=O)Nc3nccc(C)n3)cc2)n1`, for which the activation is inactive: -9.39%.

Turning to `Cc1ccc(Cl)cc1NC(=O)Cn1cc2c(n1)CCCCC2`, the activation is inactive: -7.3%. For `Cc1cccc(CSc2nc3cccnc3n2Cc2ccc(C(=O)NCc3ccco3)cc2)c1`, the activation was inactive: -17.3%. `COc1ccc(CN(Cc2ccco2)c2cnc(S(C)(=O)=O)nc2C(=O)Nc2ccc(C)c(C)c2)cc1`: the activation was inactive: -17.1%. On to `COC(=O)c1ccc(C(=O)Nc2ccc(-c3nc4cc(NC(=O)c5ccc(C(=O)OC)cc5)ccc4o3)cc2)cc1`, for which the activation is inactive: 14.4%. For the compound `O=C(CCC1N=C2c3ccccc3N=C(SCc3ccccc3Cl)N2C1=O)N1CCN(c2ccccc2)CC1` (centres undefined), the activation was inactive: -27.3%.

Regarding `Nc1ccc(S(=O)(=O)Nc2nccs2)cc1`, the activation is inactive: 0.127%. Turning to `O=C(O)c1cccc(-c2noc(-c3ccccc3F)n2)c1`, the activation was inactive: 2.85%.
